Source: PubChem BioAssay AID463173 (ICCB-Longwood Screening Facility, Harvard Medical School, 2010)
In all, about 52,000 compounds went through this assay and about 4,300 (8.3%) were called active. No stated cut-off is given here; in the data, active means survival mostly below about 52% (no sharp cut-off); inactive means mostly above about 56%. The list shows a part of the results.

System: DeltatarO mutant
Test: S. aureus survival, RN4220 and DeltatarO strains – OD600, teichoic acid synthesis inhibitors, primary screen (AID 463173)
Conditions: S. aureus RN4220 wild type/DeltatarO growth, OD600, 18 h, active compounds read low, screened at 18.75 µg/mL (by protocol)

`COc1ccc(NC(=O)c2nnn(-c3ccc(C(C)C)cc3)c2C)c(OC)c1` was tested. Which survival did it give?
The survival was inactive: 87%.

Which survival does the source give for `CC(C)CCNC(=O)c1cc(-c2cccnc2)nc2ccc(S(=O)(=O)N3CCC(C)CC3)cc12` here?
The survival was inactive: 94%.

For `O=C(CSc1nc2c([nH]c3ccccc32)c(=O)n1-c1ccccc1)N1CCCCC1`, which survival is on record?
The survival was inactive: 73%.

Which survival does the source give for `COc1ccc(OC)c(-c2noc(N3CCN(c4cccc(C(F)(F)F)c4)CC3)n2)c1` here?
The survival was inactive: 124%.

For `CCOc1ccc(-c2cc(C(=O)NCCc3ccc(C)cc3)c3ccccc3n2)cc1`, which survival is on record?
Its survival is active: 52%.

Which survival does the source give for `Cc1cccc(-n2c3nc(=O)[nH]c(=O)c-3cc3ccc(Cl)cc32)c1C` here?
The survival was inactive: 86%.

With `O=C(CC1(O)C(=O)Nc2ccccc21)c1ccccc1O` (centres undefined) as the compound, how does the survival read?
Its survival is inactive: 92%.

`CCC(=O)Oc1c(Sc2ccc(C)cc2)c(C)nn1-c1ccccc1` was tested. Which survival did it give?
Its survival is inactive: 71%.

For `Cc1cc(-c2ccccc2)nc2cc(C(N)=O)nn12`, which survival is on record?
The survival was inactive: 71%.

For `COc1ccc(CNS(=O)(=O)c2cc3c(cc2Cl)NC(=O)CO3)cc1`, which survival is on record?
The survival was inactive: 89%.

How did the survival turn out when `O=C(c1cc(-c2ccc(Br)cc2)n[nH]1)N1CCN(S(=O)(=O)c2ccc(Cl)s2)CC1` was run?
The survival was inactive: 87%.

Which survival does the source give for `CC(C)CC(=O)Nc1ccc2nc(SCC(=O)N3CCOCC3)sc2c1` here?
The survival was inactive: 99%.

`NCC(O)CN(c1ccccc1)c1ccccc1` (centres undefined) was tested. Which survival did it give?
The survival was inactive: 79%.

Which survival does the source give for `CCOc1ccccc1C(=O)N1CCc2cc(OC)c(OC)cc2C1COc1ccc(OC)cc1` (centres undefined) here?
The survival was inactive: 67%.

With `Cc1ccc(-c2nc3cccc(C)n3c2Nc2ccc3c(c2)OCO3)o1` as the compound, how does the survival read?
Its survival is inactive: 92%.

For `COc1cccc(CNC(=O)Cn2ncn3c(cc4ccccc43)c2=O)c1`, which survival is on record?
The survival was inactive: 72%.

Which survival does the source give for `Cc1nn(-c2ccccc2)c(OC(=O)c2ccc(Cl)cc2)c1S(=O)(=O)c1ccccc1` here?
Its survival is inactive: 79%.

`Cn1c(=O)c2c(nc(N3CCOCC3)n2Cc2ccccc2F)n(C)c1=O` was tested. Which survival did it give?
Its survival is inactive: 71%.

For `O=C(CSc1nc2ncccc2o1)Nc1ccc(Cl)cc1F`, which survival is on record?
The survival was inactive: 70%.

How did the survival turn out when `O=C(Nc1ccccc1C(F)(F)F)C1CCN(S(=O)(=O)c2ccccc2)CC1` was run?
Its survival is active: 49%.

With `CCNc1nc2c(c(=O)n(C)c(=O)n2C)n1CC` as the compound, how does the survival read?
Its survival is inactive: 98%.

How did the survival turn out when `CCC(=O)Nc1nnc(SCCOC)s1` was run?
Its survival is inactive: 85%.

With `CCN(CC)c1ccc(-n2nc3cc(C)c(NC(C)=O)cc3n2)cc1` as the compound, how does the survival read?
The survival was inactive: 92%.

For `COc1ccc(NC(=O)CSc2nc3ccccc3n2CC(=O)N(C)C2CCCCC2)cc1`, which survival is on record?
Its survival is inactive: 126%.

With `COc1ccc(NC(=O)c2cc(S(=O)(=O)N3CCCC(C)C3)cn2C)c(OC)c1` (centres undefined) as the compound, how does the survival read?
Its survival is inactive: 87%.

`Cc1cc(Cl)ccc1NS(=O)(=O)c1c(C(=O)N2CCCCCC2)c(C)n(C)c1C` was tested. Which survival did it give?
Its survival is inactive: 91%.

`COc1cc(C2c3c(-c4cc(C)ccc4O)n[nH]c3C(=O)N2Cc2ccco2)cc(OC)c1OC` (centres undefined) was tested. Which survival did it give?
Its survival is inactive: 66%.

With `COC(=O)CSc1nc2sc3c(c2c(=O)n1-c1ccccc1)C(C)CCC3` (centres undefined) as the compound, how does the survival read?
The survival was inactive: 62%.

Which survival does the source give for `CC(C)Oc1ccc(C(=O)Nc2nnc3n2CCS3)cc1` here?
Its survival is inactive: 124%.

For `O=C(Cn1cc(SCc2ccc(Cl)cc2)c2ccccc21)N1CCOCC1`, which survival is on record?
The survival was inactive: 79%.

For `CCCc1nn2c(=O)cc(COC(=O)c3cccc(NC(=O)c4ccc(OCC)cc4)c3)nc2s1`, which survival is on record?
The survival was active: 0%.

`O=C(CSc1nc(O)cc(=O)[nH]1)Nc1ccccc1` was tested. Which survival did it give?
The survival was inactive: 82%.

`CC(NS(=O)(=O)c1ccc2c(c1)CCN2C(=O)CCCC(=O)O)c1ccccc1` (centres undefined) was tested. Which survival did it give?
The survival was inactive: 86%.

How did the survival turn out when `N#Cc1nc(/C=C/c2ccc(F)cc2)oc1N1CCCCCC1` was run?
The survival was inactive: 59%.

Which survival does the source give for `CCc1c(C)sc(NC(=O)c2cc3nc(-c4ccc(OC)cc4)cc(C(F)(F)F)n3n2)c1C(=O)OC` here?
The survival was inactive: 71%.

How did the survival turn out when `CCN(CC)c1ccc(NC(=O)Cn2nc3c(cc2=O)CCCC3)c(C)c1` was run?
Its survival is inactive: 91%.

How did the survival turn out when `COc1cc(OC)cc(C(=O)N2CCN(C(=O)COc3ccc(C)cc3)CC2)c1` was run?
The survival was inactive: 57%.

Which survival does the source give for `COc1cccc(-n2c(SCC(=O)Nc3ccc4c(c3)OCO4)nc3c([nH]c4ccccc43)c2=O)c1` here?
Its survival is inactive: 94%.

How did the survival turn out when `COc1ccc(-n2nc(C(=O)Nc3cc(C)c(Cl)cc3OC)c3c4ccccc4n(C)c3c2=O)cc1` was run?
The survival was inactive: 94%.

With `Cc1ccc(C)c(Cn2c3ccccc3c3cnn(CC(=O)NC4CCCCCC4)c(=O)c32)c1` as the compound, how does the survival read?
The survival was inactive: 82%.

How did the survival turn out when `Cc1ccc(-c2c3c(=O)n(C)c(=O)n(C)c3c3c(-c4cccc(C)c4)nc4ccccc4n23)cc1` was run?
The survival was inactive: 81%.

How did the survival turn out when `COC(=O)c1ccccc1NC(=O)c1ccc2c(c1)CCN2S(=O)(=O)c1ccc(Cl)cc1` was run?
Its survival is inactive: 69%.

`O=c1n(Cc2ccccc2)nc2n1-c1cc(Cl)ccc1OC2` was tested. Which survival did it give?
The survival was inactive: 70%.

With `Cc1c2cnn(-c3ccccc3)c(=O)c2c(C)n1CCCC(=O)Nc1cccc(F)c1` as the compound, how does the survival read?
The survival was inactive: 70%.

`O=S(=O)(c1cccc(Cl)c1)n1c(/C=C/c2ccccc2Cl)nc2ccccc21` was tested. Which survival did it give?
Its survival is inactive: 68%.

Which survival does the source give for `COc1ccc(CN(Cc2ccco2)C(=O)COc2ccccc2Cl)cc1` here?
The survival was inactive: 51%.

For `COc1ccc(-c2cc(OC(=O)c3cccc(Cl)c3)c3c(C)oc(C)c3c(=O)c2)cc1OC`, which survival is on record?
Its survival is inactive: 77%.

How did the survival turn out when `COc1ccc(-n2ccn3c(CC(C)(C)CC(=O)O)nnc3c2=O)cc1` was run?
Its survival is inactive: 68%.

With `Cc1ccc(NC(=O)CCCn2c(=O)c3cccn3c3cccnc32)c(C)c1` as the compound, how does the survival read?
The survival was inactive: 87%.

For `CCC(Sc1nc2nccnc2c(=O)n1Cc1ccc(Cl)cc1)C(=O)NC1CCCCC1` (centres undefined), which survival is on record?
The survival was active: 19%.

For `O=c1c(-c2cc(-c3ccccc3)nc3c2COc2ccc(Cl)cc2-3)coc2ccccc12`, which survival is on record?
Its survival is inactive: 75%.

How did the survival turn out when `Cc1ccc(-c2cnc(C3CC3)o2)cc1S(=O)(=O)Nc1ccc(F)cc1Cl` was run?
Its survival is inactive: 105%.

How did the survival turn out when `CCOc1ccc(NC(=O)c2cnn3c2NC(C)=C(C(=O)Nc2ccc(Cl)cc2)C3c2ccc(OC)c(OC)c2)cc1` (centres undefined) was run?
The survival was inactive: 59%.

Which survival does the source give for `COc1ccc(OC)c(N(C)S(=O)(=O)c2ccc3c(c2)NC(=O)CC(=O)N3)c1` here?
Its survival is inactive: 94%.

Which survival does the source give for `COc1ccc(C)cc1NC1(c2ccccc2)C(=O)c2ccccc2C1=O` here?
Its survival is inactive: 75%.

How did the survival turn out when `COc1ccc2nc(N3CCN(C(=O)CS(=O)(=O)c4ccc(C)cc4)CC3)sc2c1` was run?
The survival was inactive: 119%.

For `Cc1ccccc1NC(=O)NC1(C(=O)N2CCc3ccccc32)CCCCC1`, which survival is on record?
Its survival is inactive: 91%.

`Cc1ccccc1NC(=O)c1sc2nc3n(c(=O)c2c1C)N=C(c1ccccc1)CS3` was tested. Which survival did it give?
Its survival is inactive: 88%.

With `CN(C)c1ccc(NC(=O)CC(NCc2cccnc2)C(=O)O)cc1` (centres undefined) as the compound, how does the survival read?
The survival was inactive: 76%.

For `COc1ccc(S(=O)(=O)NC(C)(C)CO)cc1-c1nnc2c3ccccc3c(C)nn12`, which survival is on record?
The survival was inactive: 96%.

`O=c1c(N2CCN(c3ccc(F)cc3)CC2)csc2ccc(F)cc12` was tested. Which survival did it give?
Its survival is inactive: 94%.

With `CCOc1ccc(NC(=O)CSc2nc3ccccc3nc2N2CCOCC2)cc1` as the compound, how does the survival read?
Its survival is inactive: 87%.

Which survival does the source give for `COc1ccc(CNC(=O)c2cc3cccc4c3n2CC(C)S4)cc1` (centres undefined) here?
The survival was inactive: 83%.

How did the survival turn out when `CCCn1c(=O)c2sccc2n2c(CCCC(=O)N3CCN(c4ccc(OC)cc4)CC3)nnc12` was run?
The survival was inactive: 90%.

`CC(C)CC(=O)Nc1cccc(-c2cn3cccnc3n2)c1` was tested. Which survival did it give?
Its survival is inactive: 83%.

How did the survival turn out when `CC1CCN(S(=O)(=O)c2ccc3nc(Nc4cccc(F)c4)ccc3c2)CC1` was run?
Its survival is inactive: 83%.

`CC(C)CNC(=O)C(=O)Nc1c2c(nn1-c1ccc(Cl)cc1)CSC2` was tested. Which survival did it give?
Its survival is inactive: 109%.

With `CC(=O)c1ccc(NC(=O)CSc2nccn2C2CCCC2)cc1` as the compound, how does the survival read?
The survival was inactive: 94%.

Which survival does the source give for `Cc1cccc(N2CCN(c3ccc4cc(S(=O)(=O)N5CCC(C)CC5)ccc4n3)CC2C)c1` (centres undefined) here?
The survival was inactive: 120%.

For `CCOC(=O)CN1CCC(n2nnc3cc(C(F)(F)F)ccc32)CC1`, which survival is on record?
The survival was inactive: 104%.

For `CC(=O)c1ccc(NC(=O)CSc2nnc3c(n2)[nH]c2ccccc23)cc1`, which survival is on record?
The survival was inactive: 119%.

How did the survival turn out when `COc1ccc(CNC(=O)c2cc(-c3ccc(OC)c(OC)c3)nc3n[nH]c(-c4ccc(C)cc4)c23)cc1` was run?
Its survival is inactive: 67%.

How did the survival turn out when `O=C(Nc1ccc(F)cc1F)c1ccc(-n2cnc3cccnc32)cc1` was run?
Its survival is inactive: 77%.

For `CCOCCCNC(=O)CN1C(=O)COc2ccc(S(=O)(=O)N3CCOCC3)cc21`, which survival is on record?
The survival was inactive: 107%.

Which survival does the source give for `COc1ccc(-c2cc(C(F)(F)F)nc(SCCC(=O)Nc3ccc(F)cc3F)n2)cc1` here?
Its survival is inactive: 58%.

With `Cc1ccc(CNC(=O)CCc2c(C)c3cc4c(C)coc4cc3oc2=O)cc1` as the compound, how does the survival read?
Its survival is inactive: 84%.

Which survival does the source give for `COC(=O)c1c(SCC(=O)Nc2ccccc2C(F)(F)F)[nH]c2ccc(Cl)cc2c1=O` here?
The survival was inactive: 77%.

For `CC(C)c1ccc(CNC(=O)c2ccc(N3CCCC3)c(NC(=O)NCc3ccc(F)cc3)c2)cc1`, which survival is on record?
The survival was active: 47%.

Which survival does the source give for `CCOC(=O)C1CCN(C(c2ccc(C)cc2)c2sc3nc(-c4ccco4)nn3c2O)CC1` (centres undefined) here?
The survival was inactive: 87%.

`CCOc1ccc(/C=C(\C#N)C(=O)Nc2sc3c(c2C(=O)OC)CCC3)cc1OC` was tested. Which survival did it give?
The survival was inactive: 133%.

`Cc1cccc(Nc2cc(C)nc3nc(-c4ccccc4)nn23)c1` was tested. Which survival did it give?
The survival was inactive: 95%.

With `CCOC(=O)C1CCCN(CCC(=O)Nc2ccc(Br)c(C)c2)C1` (centres undefined) as the compound, how does the survival read?
Its survival is inactive: 87%.

`N#Cc1c(-n2ncnc2-c2ccccc2Cl)sc2c1CCCCC2` was tested. Which survival did it give?
The survival was active: 26%.

Which survival does the source give for `Cc1cc(C)c(OCC(=O)N/N=C/c2ccc(O)cc2O)c(Br)c1` here?
The survival was inactive: 59%.

How did the survival turn out when `O=C(CCC1N=C2c3ccccc3N=C(SCc3ccc(F)cc3)N2C1=O)N1CCN(c2ccccc2)CC1` (centres undefined) was run?
The survival was inactive: 57%.

For `COc1ccc(N2CCN(C(=O)CCCCn3c(=O)[nH]c4ccsc4c3=O)CC2)cc1`, which survival is on record?
The survival was inactive: 133%.

How did the survival turn out when `CCOC(=O)c1ccc(N2C(=O)c3n[nH]c(-c4cccs4)c3C2c2cccc(O)c2)cc1` (centres undefined) was run?
The survival was active: -5%.

Which survival does the source give for `Clc1ccc(-c2nc3ncccn3c2Nc2ccc3c(c2)OCCO3)cc1` here?
Its survival is inactive: 89%.

`Cc1cccc(NC(=O)CC2C(=O)OCCN2Cc2ccccc2)c1` (centres undefined) was tested. Which survival did it give?
The survival was inactive: 177%.
